# “And” between values parts separate entries of the source, which are not always exact repeats. Identical values can stand only once. Screen size: about 420,000 compounds; about 64,000 (15%) were called active. Inconclusive results, whose numbers are uncertain, are shown with a selection of clear calls. The call rests on the fitted dose curve; in most records, active means well fitted inhibition curve with a large enough effect; inconclusive means small, poorly fitted or top-dose-only effect; inactive means flat fitted curve, though single readings scatter. Potencies of inconclusive entries are left out as doubtful fits. Some structures have more than one record in an assay (separate samples or runs), and their calls can disagree.
# Assay: qHTS for Inhibitors of human tyrosyl-DNA phosphodiesterase 1 (TDP1): qHTS in cells in absence of CPT; further: nearly all actives have a fitted effect of over 55% in size
# Details: DT40 Tdp1-/- hTDP1 cells, no CPT, ATP luminescence, 48 h; activity change, negative = growth inhibition: at 46.2 µM (top of the series) unless noted
# Outline: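 Chicken DT40 Tdp1-/- cells stably complemented with human TDP1 were seeded at 400 cells/well with DMSO in place of 20 nM camptothecin. After compound pinning, cells grew at least 48 hr at 37 °C; viability read by CellTiter-Glo luminescence.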
# On the % scale 0 is the no-effect control and ±100 the full control effect; potency means the concentration at half of the fitted maximal effect; tags describe the fitted curve by direction and shape.
Structure (SMILES),Potency,"activity change, negative = growth inhibition"
CCCCC(CC)C(=O)Nc1ccc(Cl)cn1 (stereo not drawn),inactive,
CCOC(=O)c1sc(NC(=O)Cn2nnc3sc4c(c3c2=O)CCCC4)nc1C,inactive,
NC1C(O)OC(CO)[C@@H](O)[C@@H]1O[C@H]1O[C@@H](C(=O)O)C(O)C(O)C1O (stereo partly drawn),inactive,
CCN1CCN(C(c2cccs2)C(C)NC(=S)Nc2cc(C)ccc2C)CC1 (stereo not drawn),inactive,
O=C(COC(=O)c1ccc(Br)o1)NCC(=O)Nc1ccc(F)cc1,"inconclusive [inhibitor, single point]",
COc1cccc2cc(-c3nc(Nc4cccc(C)c4C)sc3C)c(=O)oc12,"inconclusive [inhibitor, single point]",
CN(C)c1ccnc2c[cH-]cc12.[Fe].c1ccc(-[c-]2[c-](-c3ccccc3)[c-](-c3ccccc3)[c-](-c3ccccc3)[c-]2-c2ccccc2)cc1 (stereo not drawn),active: 5.8 µM and active: 3.66 µM,
COc1ccc(Cc2c(-c3cccc(Cl)c3)nc3ccc(C)cn23)c(C)c1,active: 20.6 µM,
CCCN(CC(=O)Nc1ccccc1C)C(=O)C1CC(=O)N(c2ccccc2C(C)CC)C1 (stereo not drawn),inactive,
CCn1c(SCC(=O)N/N=C/c2cccs2)nc2ccccc21,"inconclusive [inhibitor, single point]",
Cc1cccc(NC(=O)c2c(O)c3ccccc3n(C)c2=O)c1,active: 14.6 µM,
O=S1(=O)CCC(NC(=S)Nc2ccccc2)C1 (stereo not drawn),inactive,
COc1cc(C(CC(=O)Nc2cccc(C(C)=O)c2)N2Cc3ccccc3C2=O)cc(OC)c1OC (stereo not drawn),"inconclusive [inhibitor, single point]",
CN(C(=S)NC(=O)C1CC1)c1ccc(O)cc1,"inconclusive [inhibitor, single point]",
CCOc1ccccc1NC(=O)CCc1nnc2ccc(NCc3ccco3)nn12,inactive,
CC(C)CC(=O)c1c[nH]c(C(=O)NCc2cccnc2)c1,"inconclusive [inhibitor, single point]",
Cc1cc(N2CCCCC2)nc(NCc2ccccc2)n1,active: 7.31 µM,
Nn1c(SCc2ccc(Br)cc2)nnc1-c1cccnc1,inactive,
CCOc1ccc(C(C(=O)NC2CCCC2)N(C(=O)c2snc(C(N)=O)c2N)C2CCCC2)cc1 (stereo not drawn),"inconclusive [inhibitor, partial curve]",
C[C@H](CO)N1C[C@H](C)[C@@H](CN(C)S(C)(=O)=O)Oc2c(NC(=O)Nc3ccc(C(F)(F)F)cc3)cccc2C1=O,"inconclusive [inhibitor, single point]",
CCSc1ncc(Cl)c(C(=O)Nc2sc3c(c2C(=O)NCCOC)CCCC3)n1,"inconclusive [inhibitor, partial curve]",
COCCNC(=O)c1cccc(OC2CCN(Cc3cccc(SC)c3)CC2)c1,active: 16.4 µM,
CC(C)(C)N(NC(=O)Nc1ccc(Cl)cc1)C(=O)c1ccccc1,,inconclusive: -36.4% [inhibitor]
O=c1nc2n(c3ncccc13)CCCCC2,inactive,
Cc1cc(C)c(NC(=O)Cn2ncc3ccccc32)c(C)c1,inactive,

Structure (SMILES),Potency,"activity change, negative = growth inhibition"
Cc1cc(Br)ccc1NC(=O)CCCOc1cc(=O)n(C)c2ccccc12,active: 25.9 µM,
Cn1cc(C(=O)C(=O)NC2CC2)c2ccccc21,inactive,
O=C(NNC(=O)c1cccc2ccccc12)c1cccc(Br)c1,"inconclusive [inhibitor, partial curve, poor fit]",
CCN(c1cccc(C)c1)S(=O)(=O)c1cn(CC(=O)OC)c2ccc([N+](=O)[O-])cc12,inactive,
CN(C)C1=NCCN1CCC1CCCCC1,"inconclusive [inhibitor, partial curve]",
CC1(C)CC(O)C(C(O)c2cccc([N+](=O)[O-])c2)C(C)(C)N1 (stereo not drawn),inactive,
Cc1cc(O)c(C(=O)/C=C/c2cccc([N+](=O)[O-])c2)c(=O)o1,"inconclusive [inhibitor, single point]",
Cn1cc(C(=O)c2ccc(Cl)cc2Cl)cc1C(=O)N/N=C(\N)COc1ccc(Cl)cc1,"inconclusive [inhibitor, single point]",
CN1CCC(=O)N([C@H](CSc2ccccc2)c2ccccc2)CC1,inactive and active: 17.8 µM,
Cc1ccccc1NC(=O)CSc1nnc(C)c2ccccc12,inactive,
CCc1cccc(C)c1NS(=O)(=O)c1ccc(-c2cc(C)no2)s1,active: 0.517 µM,
CC(C)NC(=O)c1c(CSc2ccccc2)noc1C(=O)NCc1ccccc1,"inconclusive [inhibitor, single point]",
COc1ccc(-c2cccc(NS(=O)(=O)c3cc(C)ccc3OC)c2)nn1,active: 23.1 µM,
CC(C)c1ccc(NC(=O)Cc2c(C(=O)O)n(C)c3ccccc23)cc1,inactive,
CC1=C(C(=O)N(C(C)C)C(C)C)CC(CC(=O)NCc2cccc3ccccc23)C(=O)N1Cc1ccc(F)cc1 (stereo not drawn),"inconclusive [inhibitor, single point]",
C[C@H](NC(=O)c1nc[nH]c1C(=O)NCc1ccc(CNC(=O)OC(C)(C)C)cc1)C(=O)OC(C)(C)C,active: 16.4 µM,
C[N+]1=C(/C=C/Nc2ccccc2Cl)C(C)(C)c2ccccc21,active: 11.6 µM,
CCCCCCN1C[C@@H](O)[C@H](n2cc(C3CC3)nn2)C[C@@H]1c1ccccc1,active: 16.4 µM,
COc1ccc(C(=O)NCC(c2ccco2)S(=O)(=O)c2cccs2)cc1 (stereo not drawn),"inconclusive [inhibitor, single point]",
Cc1cc(C)c(C)c(S(=O)(=O)N2CCC(C(=O)NCCCN3CCCC3=O)CC2)c1C,"inconclusive [inhibitor, single point]",
Cc1ccccc1NC(=O)c1c(NC(=O)c2cccs2)sc2c1CCC(C)C2 (stereo not drawn),"inconclusive [inhibitor, partial curve]",
COCCN(C(=O)Cc1cccs1)C(C(=O)NCc1ccc(OC)cc1)c1ccc(C(C)C)cc1 (stereo not drawn),"inconclusive [inhibitor, single point]",
CC[C@H](C)Cc1cn([C@@H](CCCCN)C(=O)NCCCCCCCCCCC(=O)N2CCNCC2)nn1,inactive,
CCN(CC(=O)NCc1ccc(Cl)cc1)S(=O)(=O)c1ccc(F)cc1,inactive,
C=CC(C1=CC(=O)C=CC1=O)c1ccccc1 (stereo not drawn),"inconclusive [inhibitor, single point]",

Structure (SMILES),Potency,"activity change, negative = growth inhibition"
CCOc1cc(CNc2ccc(Br)cc2)cc(Br)c1OCC(=O)NC(C)(C)C,"inconclusive [inhibitor, single point]",
O=C(O)Cn1c(SCCOc2ccc(Cl)cc2)nc2ccccc21,inactive,
CCN(CCNC(=O)CN(C)S(=O)(=O)c1cccc2nsnc12)c1ccccc1,"inconclusive [inhibitor, single point]",
Cc1onc(-c2ccccc2)c1C(=O)N1CCN(c2ccccc2F)CC1,"inconclusive [inhibitor, single point]",
COc1ccc(N(C)C(=O)C2CCN(S(=O)(=O)c3cc(Br)cc4c3N(C(C)=O)CC4)CC2)cc1,inactive,
COc1ccc(S(=O)(=O)CCC(=O)NC2CCCCC2)cc1,inactive,
CN(C)S(=O)(=O)c1ccc(C(=O)Nc2ccc3c(c2)CCC3)cc1,"inconclusive [inhibitor, single point]",
COc1ccccc1-c1cc(C(=O)N/N=C/C=C/c2ccccc2[N+](=O)[O-])c2ccccc2n1,active: 20.6 µM,
O=C(CCN1C(=O)C2C3C=CC(C3)C2C1=O)Nc1nccs1 (stereo not drawn),"inconclusive [inhibitor, single point]",
CC(C)(O)C#Cc1ccc(CN2CCC(CO)(CCc3ccccc3)CC2)cc1,"inconclusive [inhibitor, partial curve]",
O=C(NCCc1ccccc1)c1ccc(NC(=O)C2CCCCC2)cc1,inactive,
O=[N+]([O-])c1ccc2c(c1)-c1ccccc1C2O (stereo not drawn),active: 13 µM,
CCCNS(=O)(=O)c1ccc(OCC(=O)Nc2ccc3c(c2)OCCO3)c(C)c1,"inconclusive [inhibitor, single point]",
O=C(Nc1ccc(F)cc1)C(CCc1ccccc1)N1CCN(c2cccc(C(F)(F)F)n2)CC1 (stereo not drawn),"inconclusive [inhibitor, single point]",
Cc1nc(SCC(=O)N(C)C2CCS(=O)(=O)C2)c(C#N)c(C)c1C (stereo not drawn),inactive,
O=C(CN(C(=O)c1ccccc1Cl)C1CCCCC1)Nc1ccc(Cl)c([N+](=O)[O-])c1,"inconclusive [inhibitor, single point]",
CN(Cc1c(C(=O)N/N=C/c2cccc(F)c2)nnn1-c1nonc1N)C1CCCCC1,inactive,
Cc1ccc(S(=O)(=O)Nc2ccc(Nc3nccn4c(-c5ccc6ccccc6c5)cnc34)cc2)cc1,"inconclusive [inhibitor, single point]",
O=C(C1CCCN(Cc2ccccc2Cl)C1)N1CCCCC1 (stereo not drawn),inactive,
Cc1ccc2nc(N3CCN(S(=O)(=O)c4ccc5c(c4)OCCO5)CC3)c(C#N)cc2c1,"inconclusive [inhibitor, single point]",
Cc1ccn2c(Nc3ccccc3C)c(-c3ccccc3)nc2c1,"inconclusive [inhibitor, single point]",
Cc1ccc2cc(CCNS(=O)(=O)c3ccc(F)cc3)c(=O)[nH]c2c1C,active: 18.4 µM,
O=C(CC12CC3CC(CC(Br)(C3)C1)C2)Nc1cccc(S(=O)(=O)NC2=NCCC2)c1,inactive,

# From PubChem BioAssay AID686978 (National Center for Advancing Translational Sciences (NCATS), 2013)
